Laboratory results as given in the supplement of paper PMC11417369.
Some of the results follow.

system: PfSIP2 AP2 domain 1 (GST-tagged); assay: gcPBM binding intensity (ln(normalized median fluorescence intensity)); higher = stronger DNA binding
Outline: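 An Agilent 4 × 180k array of primer-extended double-stranded 36-bp intergenic genomic probes, with negative controls, was incubated for 1 h with GST-tagged P. falciparum DNA-binding domains expressed in E. coli. Alexa488 anti-GST antibody detected bound protein, scanned at 488 nm. Binding intensity is the highest Masliner-normalised natural-log median intensity across replicate spots of either probe orientation.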

Sequence | gcPBM binding intensity (ln)
ACGATATTTTTGGTGACACACATATATATATATATA [CACACA_site126] | 9.49
TTTTTTTTTTTATCTGCACACCCTTTTGTGAATATT [CACACA_site789] | 7.51
AATGAGCGTTAAAAATGTACAGAAAATTGGAATTAT [XGTACX_site5743] | 6.85
AAAACTTTTAGTTATACACACAACATAGAAAATATT [CACACA_site6287] | 6.94
AACAATCAAATAGACACACACACACCCAAACATAAA [CACACA_site2757] | 7.04
CTCCTACAAATATGTAGTACATTCAAAATAAATACC [XGTACX_site8207] | 7.64
ATGCAATAAATATACACACACAAATCTATATTTATA [CACACA_site7179] | 7.02
AATTATTATATATATATATATATATATTTATATATT [GTGCAC_negctrl_site387] | 7.53
AGTTCAAGGATTAAGACACACATATAAATAAATAAA [CACACA_site3662] | 6.98
AAATAAAATAATTATAATACTAAAAATAATACATAA [GTGCAC_negctrl_site106] | 7.01
TTTTTTTTGTAGAATTGTACTTATAAAATATATATA [XGTACX_site2116] | 7.13
AAAAAATGGATGATCACACACTTCATAAAAGTTGCA [CACACA_site7109] | 6.65
CATTTTTTAAGCATCACACACGAAAGAACAAAGTGG [CACACA_site4755] | 7.42
TGGAAAATTATAAGGTGTACATATAAGCTATTATAT [XGTACX_site118] | 7.01
TTTTTTTTTTTAAGGTGTACAATAAAAATTTATGCA [XGTACX_site8860] | 7
CATATATAAAATATATGTACTTATAGAACATAATTT [XGTACX_site1936] | 6.75
AGGAATAAATAATTAACACACACAATCTTTTTTTTT [CACACA_site9027] | 6.78
TAATAAGTATAAAATAGTACATATAAATATATCAAA [XGTACX_site8834] | 6.85
ACTTTTTCACATAAAAATGATCCGATTAGTAATAAT [XGTACX_negctrl_site248] | 7.08
ATAATATTAGTAAACACACTCAAATTATATATGATA [CACACA_site5721] | 6.88
AAATAAAAAAACTATTGTACTGAATACAAATTAAAT [XGTACX_site3793] | 6.86
AGTATACATTCATTTTGTACTCAATGATTTGATAAC [XGTACX_site6787] | 6.97
ATAATTATATTCCATACACACATATATTTAAAGGTT [CACACA_site2957] | 6.96

Sequence | gcPBM binding intensity (ln)
TAAATAAATACATACACACACATACATATATATATA [CACACA_site3129] | 9.32
TTATTGTTTATTAAATGTACAGATTCGTTAAAATTA [XGTACX_site3041] | 7.27
ACAACAATATGGAATTGTACATATATATATAAATAT [XGTACX_site3139] | 7.06
TATTTTTTTGTGTTTGGTACACACGTTATAAAAAAT [XGTACX_site2655] | 7.36
CTAGCAAATACATACACACACACACCCATACATATA [CACACA_site3496] | 7.1
TACACAAAACATAAAAGTACATAATAATAAAGTTAA [XGTACX_site8872] | 7.12
GAACAAATAAAAAGGAGTACAATCAAATCTACGTAT [XGTACX_site343] | 7.01
TTATAATAAATATGAAGTACTATAAATATGGTATAT [XGTACX_site5448] | 7.04
CACTAAAATGGACACACACACACACCGATATATATA [CACACA_site6139] | 7.33
ATCGCATAAAGACAAGAACACACATATATATTGTAG [CACACA_site9229] | 7.07
AATAAATATAGGAATACACACAATATAAATGTATTG [CACACA_site3366] | 6.91
ATTTGGCATAAACACACACACACACCCACCCACATA [CACACA_site8096] | 7.11
TTTTTATTGAGAACAGTGCAAATAACAAAAAAAAAA | 8.56
AAAAAGAAGATGCAAACATGCACACAGAAAAAAAAA [TGCATGCA_site375] | 7.94
AAAAAAAAAAAAATTACACACATACAGATAATAATA [CACACA_site5244] | 7.03
TTTTTTTTTTGAATATGTACTTAAAAAAATTTTTTT [XGTACX_site3851] | 6.89
CTATTATAAAAATGATGTACACTTATATATACATAT [XGTACX_site6087] | 7.19
TAATTTTTTTTTTTTTTTTTTTTTTTTTTTTTTTTA [CACACA_negctrl_site1218] | 6.91
TTTTCATTCCACAACGCACACCCATTTAAAAAAAAA [CACACA_site1377] | 7.76
AAAAAATATTTTAGTGGTACATTTGTAGCTCTCAAA [XGTACX_site4859] | 6.58
AATCAAATATTTAAATGTACTCAAGAAGGCTTAATC [XGTACX_site6907] | 6.96
ATAACATGAACATATGTTACACAAACATACATACAT [XGTACX_negctrl_site365] | 7.17
AAAAATATAATATAATGTACACAAAAAAAAAAAATC [XGTACX_site1427] | 7.1

Sequence | gcPBM binding intensity (ln)
TATGAAGACACAAATACACACACTCAAAAAAAAAAA [CACACA_site2660] | 6.93
GAAAAAAAAAAAAAAAAACACACGGTACATTCAAAG [CACACA_site303] | 6.86
AAATTATAATTAGGAACACACATATATATATATATA [CACACA_site3098] | 9.59
TACATACATACATACATACACACATATATATATATA [CACACA_site1996] | 9.18
TACATGTATAATATAATACACACTATATAATATACA [CACACA_site2239] | 6.92
ATCAAACAAAAAATAAAAAAATGCGACATGTGTACA [TGCATGCA_negctrl_site164] | 7.06
GAAAATTATGTATATTGTACAAATATTATATTAAAT [XGTACX_site2467] | 6.97
TTAATATTTTTAATTTGTACATATAATTAAATCTCT [XGTACX_site1736] | 6.84
TATAAAATTTAAATTATACACACTTAAGTAACATCA [CACACA_site531] | 7.14
CAAGGACAATTTACAAACATAATATATGTATATATA [TGCATGCA_negctrl_site5] | 7
TTGAATACATATATATGTACATATTCTATGGTTAGA [XGTACX_site4088] | 6.94
ATTATCTTCAAGTATGTACACACTATATATAATAAA [CACACA_site2441] | 7.19
CTGAGGAAGCTAATTACACACATGCATATTTTTTTT [CACACA_site2177] | 7.07
TTTTTTTTACATGAACGTACATAATATATTTTATAA [XGTACX_site5249] | 7.08
TGGTGTTTTTTTTAATGTACTTATAAAATAATACAT [XGTACX_site6574] | 7.29
ATGTAAAAATAAAGATGTACATGTATATATATATAT [XGTACX_site5193] | 9.19
AATATATATTCATGTGTACACACAAAAAAAAATAAA [CACACA_site8690] | 7.55
CCTATAATTAGGGGTAGTACACAAAAAAAAAAAAAA [XGTACX_site6396] | 7.66
AATTCCTTATACAATTGTACATAAAAAGAATAAAAA [XGTACX_site1343] | 7.41
TTAAAAAAGAATTGTGCACACACAAAAAATGTTCAT [CACACA_site1102] | 8.76
TATGGGTATGTATTCACACATAACAAAAATATCAAA [CACACA_site5059] | 6.89
ATATATATATATAACACACGCAAAAAAATTAAATAA [CACACA_site1400] | 9.16
TTTTATATATTCAATTGTACATGTATTTTTTTTTTT [XGTACX_site3584] | 6.99

Sequence | gcPBM binding intensity (ln)
CAAAGACACAAACACACACACACATACATACATACA [CACACA_site453] | 8.24
ATAAATTTACTTGATTGTACATTTCTTAGTTGTATT [XGTACX_site3057] | 6.82
TATACTGATAAAAAAAGTACTAGAGTTTGTAAAAAT [XGTACX_site3934] | 6.72
CACAAGAAAGTTCACACACACACATATATATATATA [CACACA_site6009] | 9.6
TTATATGTCAATTTGCGTACATACATAATTACATAT [XGTACX_site1546] | 6.99
AATTTTAATTTTTTGACACACATATAATATATATAT [CACACA_site3978] | 8.25
ATAAGGTTACAACAAACACACAAAGGAATATACGCA [CACACA_site4090] | 7.22
AAGAAGAATAGGCGTTGTACGGAATGTAGTAGAGTT [XGTACX_site2430] | 7.28
TTAATATAAATATGATTTTTGATTCCTATACTATTT [CACACA_negctrl_site752] | 6.56
TTGTATTCATATGGTTGTACATATTAAAAGTTCTAA [XGTACX_site7255] | 6.97
TTTATTTTTAAAGGCACACACATTTTTATTTTTAAA [CACACA_site2021] | 6.93
TTCTTTTTTTTCAGTTGTACTTATAAGAAAGAAAAA [XGTACX_site4028] | 7.2
TTTATTTATAGAATTACACACATATATACACAAATG [CACACA_site7338] | 7.2
ATATATATAACAAAAGTGCATTAAGGGGATGCTATA | 8.25
TTATTATAAATAGGTAGTACATTTTGAACAAATATT [XGTACX_site8866] | 7.3
AATATAAATATAGGAAATGTAGTTAAAAGGTGTATG [CACACA_negctrl_site1233] | 7.29
ATACGACAAATATAAAGTACAAGCTTGGTTTTTATA [XGTACX_site8103] | 6.84
TATGCAAGGAACCACACACACACACGGAAATGTATA [CACACA_site6490] | 6.94
AATTATGGGGAAAAGACACACATATATATATATATA [CACACA_site2589] | 9.55
TTATATATATATGTATGTACTTATAACTTTTATTAG [XGTACX_site3190] | 6.92
